# Measured values from PubChem BioAssay AID1347073 (National Center for Advancing Translational Sciences (NCATS), 2019).
# In all, about 45,000 compounds went through this assay and about 200 (0.44%) were called active. Not shown: some 7% with an inconclusive outcome. Calls come from the whole dose curve; as a rule, active = well fitted activation curve with a large enough effect; inconclusive = small, poorly fitted or top-dose-only effect; inactive = no such curve, though single readings can be large or run the other way. The list shows a part of the results.
# Assay: qHTS of TDP-43 Inhibitors: NCGC Sytravon Library Screen; note: 0% is about no effect; nearly all actives have a fitted effect of over 55% in size
# Settings: yeast TDP-43 toxicity rescue, BacTiter-Glo growth, 24 h; series mostly up to 46.1 µM; growth rescue (activation): at the top concentration
# Summary of the method: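 TDP-43-expressing yeast, pregrown in raffinose, seeded at OD600 0.02 in galactose medium with compound for 24 hr at 30 deg C. Growth read by BacTiter-Glo luminescence, so rescue of toxicity appears as activation.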
row,Structure (SMILES),growth rescue (activation)
1,O=C(NCc1ccco1)c1cc(=O)c2ccccc2o1,inactive: 9.35%
2,Cc1ccc(-c2cc3nc(NCCOc4ccccc4Cl)n(C)c(=O)c3s2)cc1,inactive: 0.716%
3,Cc1ccc2nc3c(cc(S(=O)(=O)c4ccccc4)c(=N)n3C3CCCC3)c(=O)n2c1,inactive: 2.01%
4,COc1ccc(C(=O)N2CCN(Cc3ccc4c(c3)OCO4)CC2)cc1[N+](=O)[O-],inactive: 0.237%
5,CCOc1ccc(N(CC(=O)NN=C2CCN(C)CC2)S(C)(=O)=O)cc1,inactive: -10.2%
6,CCOc1ccc(CN(C(=O)c2ccco2)C2CCS(=O)(=O)C2)cc1 (stereo not given),inactive: -1.82%
7,Cc1ccc(NCc2cccn2-c2nnc(N3CCC(C(=O)NC(C)C)CC3)s2)cc1,inactive: 6.93%
8,COc1ccc(NC(=S)N(CCC(C)C)C2CCN(C(C)C)CC2)cc1Cl,inactive: -10.5%
9,COc1cc(NC(=O)c2c(-c3ccccc3Cl)noc2C)c2ncccc2c1,inactive: 20.6%
10,CCC1CCCCN1C(=S)Nc1ccc(C(C)=O)cc1 (stereo not given),inactive: 37.1%
11,O=C(c1ccc(-c2ccccc2)cc1)C1CCCN(C(=O)Cn2cncn2)C1 (stereo not given),inactive: -8.23%
12,CC1CCCC(C)N1C(=O)c1cc(-c2ccco2)on1 (stereo not given),inactive: 21.3%
13,Cc1cc(Br)c(NC(=O)COC(=O)C2CC2C)c(Br)c1 (stereo not given),inactive: 35.9%
14,O=C(Cn1cnc2ccccc2c1=O)N/N=C/c1ccc(Br)cc1,inactive: 13.4%
15,O=[N+]([O-])c1cc(S(=O)(=O)CCCN2CCOCC2)ccc1F,inactive: 4.82%
16,O=C(CN1CCN(Cc2ccccc2)CC1)N=Nc1c(O)[nH]c2ccccc12,inactive: 11.5%
17,COc1ccc(OC2C(=O)N(c3ccc(C)c(C)c3)C2c2ccc(OC)c(OC)c2)cc1 (stereo not given),inactive: 6.4%
18,CCNc1nc(SC(C)C(=O)Nc2ccccc2)nc(N(C)C)n1 (stereo not given),inactive: 1.96%
19,CNC(=O)c1ccc(NC(=O)CC23CC4CC(CC(C4)C2)C3)cc1,inactive: 1.56%
20,COc1cccc(N(C(=O)Cn2nnc(-c3ccc(C)o3)n2)C(C(=O)NC2CCCC2)c2ccncc2)c1 (stereo not given),inactive: 0.66%
21,CC(CCc1ccccc1)NC(=O)N1CCOCC1 (stereo not given),inactive: 21.6%
22,Cc1nc(N2CCOCC2)nc(N2CCCCC2)c1[N+](=O)[O-],inactive: 14.3%
23,CN(Cc1ccccc1)S(=O)(=O)c1ccc(OCC(=O)NCc2ccccn2)cc1,inactive: 0.191%
24,CCC(=O)Nc1c(C)n[nH]c1C,inactive: -1.54%
25,CCN(NC(=O)C(O)(c1ccc(F)cc1)c1ccc(F)cc1)C(=O)c1ccccc1,inactive: 26.3%
26,O=C(N/N=C/c1ccccc1OC(F)F)NC1CCCCC1,inactive: 17.3%
27,CC(OC(=O)c1ccc(NC(N)=O)cc1)C(=O)Nc1ccc2c(c1)OCCO2 (stereo not given),inactive: 12.9%

row,Structure (SMILES),growth rescue (activation)
1,O=C(/C=C/c1ccccc1[N+](=O)[O-])NCC1CCCO1 (stereo not given),inactive: 17%
2,Cc1[nH]c2ccccc2c1/C=C(\C#N)C(=O)NCC1CCCO1 (stereo not given),inactive: 5.31%
3,Cc1ccc(NC(=O)OCc2cncs2)cc1,inactive: 3.1%
4,COc1cccc(C(=O)NNC2=C(C(=O)C(F)(F)F)CCC2)c1,inactive: 12.6%
5,O=C(Nc1ccc(OC(F)(F)F)cc1)c1ccc2ccccc2n1,inactive: 0.225%
6,CCOC(=O)C1=C(c2ccc(OC)cc2)OC(N)=C(C#N)C1c1cccnc1 (stereo not given),inactive: -7.88%
7,Cc1cccc(C(=O)Nc2ccc(C(=O)N/N=C/c3ccc4c(c3)OCO4)cc2)c1,inactive: 5.71%
8,NS(=O)(=O)c1ccc2nc(NC(=O)c3ccncc3)sc2c1,inactive: -1.25%
9,CCC(=O)OCCNc1cc(Sc2nccn2C)c2nonc2c1[N+](=O)[O-],inactive: 10.6%
10,COc1ccc(CCNC(=O)CSc2nnc(-c3ccccc3)c3ccccc23)cc1OC,inactive: 28.4%
11,CN(C)/C=N/c1c(C#N)cnn1-c1nc2ccccc2s1,inactive: 9.92%
12,CCOC(=O)C1=C(CNCCc2ccc(Cl)cc2)NC(=O)NC1c1cccc([N+](=O)[O-])c1 (stereo not given),inactive: -0.0345%
13,Cc1cc(C)c(NC(=O)CCCN2C(=O)COc3ccc(C)cc32)c(C)c1,inactive: 7.3%
14,COCCNC(=O)Cc1c(C)c2cc3c(cc2oc1=O)OC(C)(C)CC3,inactive: 9.86%
15,OCCN1CCN(CC(O)COCC2COc3ccccc3O2)CC1 (stereo not given),inactive: -7.09%
16,O=C(Nc1cccc(C(F)(F)F)c1)c1cc[n+]([O-])cc1,inactive: 10.5%
17,COc1ccc(C(=O)OC/C(O)=C(\C#N)c2nc3ccccc3[nH]2)cc1S(=O)(=O)N1CCOCC1,inactive: 6.71%
18,COc1ccccc1-n1c(=O)c2c3c(sc2n2c(SC(C)C)nnc12)CCC3,inactive: 20.8%
19,N#Cc1ccc(OCc2ccc(C(=O)O)o2)cc1,inactive: 8.09%
20,COCC(C)n1c(SCC(=O)NNC(=O)c2ccccc2)nc2ccccc2c1=O (stereo not given),inactive: 1.92%
21,CC(C)[C@H](NC(=O)c1ccco1)C(=O)N(C)Cc1ccc(C(F)(F)F)cc1,inactive: 5.25%
22,COc1ccc(-c2[nH]nc3oc(=O)c(CCO)c(C)c23)cc1,inactive: -15.4%
23,CC(=O)NCc1ccc(S(=O)(=O)N2CCN(c3ccccn3)CC2)cc1,inactive: -7.13%
24,Cc1ccc(S(=O)(=O)N2CCC(C(=O)NCC3CC3)CC2)cc1,inactive: 8.13%
25,O=[N+]([O-])c1ccc(OCC(O)CN2CCN(c3ccccc3F)CC2)cc1 (stereo not given),inactive: 9.86%
26,O=C(Nc1ccc(N2CCCCC2)cc1)c1cc([N+](=O)[O-])cc([N+](=O)[O-])c1,inactive: -1.91%
27,Cc1ccc(NC(=O)COC(=O)CNC(=O)C2CCCCC2)cc1S(=O)(=O)N(C)C,inactive: -6.63%

row,Structure (SMILES),growth rescue (activation)
1,COc1ccc(CNC(=O)COC(=O)C2=Cc3ccccc3OC2)cc1,inactive: -2.87%
2,Cc1cc(NNC(=O)c2ccccc2)nc(NNC(=O)c2ccccc2)n1,inactive: 5.08%
3,COc1ccccc1N(C)S(=O)(=O)c1ccc(C(=O)N2CCCc3ccccc32)cc1,inactive: 19.6%
4,Cc1ccc(C(=O)NNC(=O)c2n[nH]c(=O)c3ccccc23)cc1C,inactive: -13.6%
5,CCn1ncc(Br)c1C(=O)Nc1ccc(C(C)C)cc1,inactive: 24.4%
6,CCOc1ccccc1N1CCN(CC(O)COC2CCCc3ccccc32)CC1 (stereo not given),inactive: -6.32%
7,O=C(N/C(=C/c1cccs1)C(=O)N1CCOCC1)c1ccco1,inactive: -28.1%
8,CC(C)C(=O)N=C1SC2CS(=O)(=O)CC2N1Cc1ccc(Cl)cc1 (stereo not given),inactive: 5.32%
9,CCOc1ccc(Cl)cc1S(=O)(=O)N1CCC(C(=O)NCc2ccco2)CC1,inactive: 12%
10,CC1(C(=O)NCc2ccccc2)Cc2c(-c3ccc(C(N)=O)cc3)ccnc2O1 (stereo not given),inactive: -3.93%
11,COc1ccc(CN(Cc2ccc(C(=O)O)cc2)C(=S)Nc2ccccc2C)cc1OC,inactive: 3.97%
12,CCCCn1c(N)c(NCCC)c(=O)[nH]c1=O,inactive: 10.6%
13,CCn1c(CC(=O)Nc2ccc(Cl)c(Cl)c2)nnc1SCc1ccc(C)cc1,inactive: 14.2%
14,Cc1ccc(F)c(CNC(=O)C2(C)CCCN2C(=O)C(C)C)c1F (stereo not given),inactive: 1.48%
15,COc1ccc(CNC(=O)CN(Cc2ccccc2)C(=O)CCC(=O)Nc2ccccn2)cc1,inactive: -1.07%
16,CC1(C)N=C(N)N=C(N)N1c1ccc(Oc2ccc(Cl)cc2)c(Cl)c1,inactive: -6.66%
17,CN1CCN(C(=O)CCc2nc3ccccc3c(=O)[nH]2)CC1,inactive: 23.5%
18,CCN(CC)S(=O)(=O)c1cc(C(=O)Nc2cc(C)on2)ccc1Cl,inactive: 0.594%
19,CCn1cc(C(=O)OCC(=O)Nc2cccc(C)c2)c(=O)c2ccc(C)nc21,inactive: 36.2%
20,O=C(NCC1CCCC(CNC(=O)Nc2ccc(Cl)cn2)C1)Nc1ccc(Cl)cn1 (stereo not given),inactive: 20.7%
21,Cn1c(=O)c([N+](=O)[O-])c(NCc2ccc3c(c2)OCO3)c2ccccc21,inactive: -3.01%
22,CC(C)(C)NC(=O)C(=O)NNC(=O)COc1ccccc1,inactive: 24.2%
23,O=C(N/C(=C\c1ccc([N+](=O)[O-])cc1)C(=O)N1CCOCC1)c1ccco1,inactive: 7.18%
24,Cc1c(C(=O)Nc2nonc2-c2ccc(F)cc2)oc2ccc(F)cc12,inactive: -6.81%
25,O=c1[nH]cnc2scc(-c3ccc(Br)cc3)c12,inactive: 4.05%
26,COc1cc(C)ccc1Oc1nc(-c2ccccc2O)nc2ccccc12,inactive: -22.5%
27,CC(C)n1cc(CN2CCCC(CO)(Cc3cccc(Cl)c3)C2)cn1 (stereo not given),inactive: -2.02%

row,Structure (SMILES),growth rescue (activation)
1,Cn1c(=O)c(C(=O)CN2CCN(S(=O)(=O)c3ccccc3)CC2)c(N)n(Cc2ccccc2)c1=O,inactive: 6.98%
2,CCC(C)C(NC(=O)c1ccc(Cl)cc1)C(=O)Nc1cccnc1 (stereo not given),inactive: -2.8%
3,CN(C)CCCNC(=O)c1cc(C(=O)Cc2ccccc2)c[nH]1,inactive: -3.33%
4,COc1ccc(S(=O)(=O)N(C)CC(=O)Nc2ccccc2C(F)(F)F)cc1OC,inactive: 7.37%
5,Oc1ccc(C=Nc2cccc3ccccc23)c(O)c1,inactive: 9.08%
6,CCCCn1nnc(NC(=O)c2ccco2)n1,inactive: -33%
7,CN(C)S(=O)(=O)c1cc(NC(=O)COC(=O)CC2Sc3ccccc3NC2=O)ccc1Cl (stereo not given),inactive: 12.5%
8,CCCn1nnnc1NCc1ccccc1OCC,inactive: -12.4%
9,CCc1ccc(Nc2nnc(SC(C)C(=O)NC3CC3)s2)cc1 (stereo not given),inactive: 15.3%
10,COc1cccc(/C=C/C(=O)NCCc2ccc3c(c2)OCCO3)c1,inactive: 6.73%
11,C/C(CC(=O)NC(C)C)=N\NC(=O)C(c1ccccc1)c1ccccc1,inactive: 2.36%
12,COc1cc(CCC(=O)OCC(=O)Nc2ccc(F)c(F)c2)cc(OC)c1OC,inactive: -19%
13,O=C(Oc1ccc(C(=S)N2CCOCC2)cc1)c1cc([N+](=O)[O-])cc([N+](=O)[O-])c1,inactive: 13.3%
14,COC(=O)Cn1c(=O)c2cccn2c2cccnc21,inactive: 16%
15,CC(C)CCC(CCNCc1ccccn1)c1ccc(Cl)cc1 (stereo not given),inactive: 16.6%
16,Cc1ccsc1CN(C(=O)c1oc2cc(Br)ccc2c1C)C1CCS(=O)(=O)C1 (stereo not given),inactive: 13.6%
17,O=C(CSc1nnc(NC(=O)c2ccccc2F)s1)NC1CCCC1,inactive: 18.5%
18,COc1ccc(C)cc1N(C(=O)c1snc(C(N)=O)c1N)C(C(=O)NC1CCCCC1)c1ccc(C)o1 (stereo not given),inactive: 9.51%
19,O=C(NCc1cccs1)c1ccc2sc([C@@H]3O[C@H](CO)[C@H](O)[C@H](O)[C@H]3O)nc2c1,inactive: 6.49%
20,COc1cc(CNC(=O)Nc2cccn3nc(COCCO)nc23)cc(OC)c1OC,inactive: -5.51%
21,CCOc1ccc(/C(C)=N/N2C(=O)C(CC(=O)Nc3ccc(OC)cc3[N+](=O)[O-])SC2=Nc2cccc(C)c2C)cc1 (stereo not given),inactive: 14.2%
22,COc1cccc(CN2CCC2(C)C(=O)Nc2cccc(NS(C)(=O)=O)c2)c1OC (stereo not given),inactive: -7.67%
23,O=C(OCCN=C1NS(=O)(=O)c2ccccc21)c1ccccc1F,inactive: -0.814%
24,Nc1c(C(=O)Nc2ccccc2)nnn1Cc1ccc(F)cc1Cl,inactive: 0.0407%
